# Measurements as given in the supplement of paper PMC4604168 (melanoma cell lines).
# This is one part of the list. Repeats are few or missing, and single values can be far off.
# Tested on: LOXIMVI
# Test: cell count relative to DMSO control; melanoma cells; higher = more viable cells
# Conditions: library dose: low library concentration; 72 h
# 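Also: cell number obtained by counting DAPI-stained nuclei in high-throughput microscope images with image analysis software, screen run in 1,536-well plates.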
row,Compound,cell count [%]
1,"COc1ccc(C2=N[C@@H](c3ccc(Cl)cc3)[C@@H](c3ccc(Cl)cc3)N2C(=O)N2CCNC(=O)C2)c(OC(C)C)c1 [Nutlin-3] + C=C(c1ccc(C(=O)O)cc1)c1cc2c(cc1C)C(C)(C)CCC2(C)C [Bexarotene] (first compound 0.1 µM, partner dose 2 µM)",65.6
2,"Cc1cc(Nc2cc(N3CCN(C)CC3)nc(/C=C/c3ccccc3)n2)n[nH]1 + Cc1nc(Nc2ncc(C(=O)Nc3c(C)cccc3Cl)s2)cc(N2CCN(CCO)CC2)n1 [dasatanib] (first compound 0.04 µM, partner dose 0.004 µM)",50.4
3,"Cc1cn(-c2cc(NC(=O)c3ccc(C)c(Nc4nccc(-c5cccnc5)n4)c3)cc(C(F)(F)F)c2)cn1 [nilotinib] + CC(=O)O[C@@]12CO[C@@H]1C[C@H](O)[C@@]1(C)C(=O)[C@H](O)C3=C(C)[C@@H](OC(=O)[C@H](O)[C@@H](NC(=O)OC(C)(C)C)c4ccccc4)C[C@@](O)([C@@H](OC(=O)c4ccccc4)[C@H]21)C3(C)C [Docetaxel] (first compound 0.2 µM, partner dose 0.0001 µM)",110
4,"Cn1c(=O)n(-c2ccc(C(C)(C)C#N)cc2)c2c3cc(-c4cnc5ccccc5c4)ccc3ncc21 + CO[C@H]1C[C@@H]2CC[C@@H](C)[C@@](O)(O2)C(=O)C(=O)N2CCCC[C@H]2C(=O)O[C@H]([C@H](C)C[C@@H]2CC[C@@H](OCCO)[C@H](OC)C2)CC(=O)[C@H](C)/C=C(\C)[C@@H](O)[C@@H](OC)C(=O)[C@H](C)C[C@H](C)/C=C/C=C/C=C/1C [everolimus] (first compound 0.004 µM, partner dose 0.02 µM)",89.4
5,"COc1ccc(C2=N[C@@H](c3ccc(Cl)cc3)[C@@H](c3ccc(Cl)cc3)N2C(=O)N2CCNC(=O)C2)c(OC(C)C)c1 [Nutlin-3] + C[C@]1(c2nc3c(C(N)=O)cccc3[nH]2)CCCN1 [Veliparib] (first compound 0.1 µM, partner dose 1.4 µM)",74.7
6,"COc1ccc(C2=N[C@@H](c3ccc(Cl)cc3)[C@@H](c3ccc(Cl)cc3)N2C(=O)N2CCNC(=O)C2)c(OC(C)C)c1 [Nutlin-3] + Nc1cccc2c1CN(C1CCC(=O)NC1=O)C2=O [lenalidomide] (first compound 0.1 µM, partner dose 1 µM)",69
7,"CC(C)C[C@H](NC(=O)[C@H](Cc1ccccc1)NC(=O)c1cnccn1)B(O)O [Bortezomib] + O=C(O)[C@@H]1[O][Sb](=[O])([O][Sb]2(=[O])[O][C@H]([C@H](O)CO)[C@H](O)[C@H](C(=O)O)[O]2)[O][C@H]([C@H](O)CO)[C@@H]1O [stibogluconate] (first compound 0.001 µM, partner dose 2 µM)",89.8
8,"COc1ccc(C2=N[C@@H](c3ccc(Cl)cc3)[C@@H](c3ccc(Cl)cc3)N2C(=O)N2CCNC(=O)C2)c(OC(C)C)c1 [Nutlin-3] + Nc1ccn([C@@H]2O[C@H](CO)[C@@H](O)C2(F)F)c(=O)n1 [gemcitabine] (first compound 0.1 µM, partner dose 0.0004 µM)",83.2
9,"Cc1cc(Nc2cc(N3CCN(C)CC3)nc(/C=C/c3ccccc3)n2)n[nH]1 + CCCS(=O)(=O)Nc1ccc(F)c(C(=O)c2c[nH]c3ncc(Cl)cc23)c1F [PLX4720] (first compound 0.04 µM, partner dose 0.08 µM)",58.4
10,"Cn1c(=O)n(-c2ccc(C(C)(C)C#N)cc2)c2c3cc(-c4cnc5ccccc5c4)ccc3ncc21 + COc1ccc(Cl)c(Nc2nc3ccccc3nc2NS(=O)(=O)c2cccc(NC(=O)C(C)(C)N)c2)c1 [XL147] (first compound 0.004 µM, partner dose 0.8 µM)",63.2
11,"Cc1cn(-c2cc(NC(=O)c3ccc(C)c(Nc4nccc(-c5cccnc5)n4)c3)cc(C(F)(F)F)c2)cn1 [nilotinib] + NC(=O)c1ccc(N(C(N)=O)c2c(F)cccc2F)nc1-c1ccc(F)cc1F [VX702] (first compound 0.2 µM, partner dose 0.4 µM)",80
12,"Cc1cn(-c2cc(NC(=O)c3ccc(C)c(Nc4nccc(-c5cccnc5)n4)c3)cc(C(F)(F)F)c2)cn1 [nilotinib] + O=C(O)c1ccc2c(c1)nc(Nc1cccc(Cl)c1)c1ccncc12 [CX4945] (first compound 0.2 µM, partner dose 0.4 µM)",67.8
